Experimental findings from the supplement of paper PMC10126150 are described below.

In the data set the test system is ATP. Nature of the data set: switch fluorescence ratio, 500 uM ATP over buffer (Cy3 cluster intensity, sum of 5 cycles each) (fold (ratio)); higher = stronger signal-on switching upon ATP binding; sequences stand for … in TCGTCGGCAGCGTCAGATGTGTATAAGAGACAGTTTTTTTTTTTTTTTTTTTTTTTTT…TC. The conditions noted are these: aptamer strand: ATP DNA aptamer (quencher-CACCTGGGGGAGTATTGCGGAGGAAGG + anchor), 100 nM annealed; ATP concentration: 500 uM; one replicate. The method in brief:
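The quencher-labelled ATP aptamer, at 100 nM, was annealed to Cy3-labelled switching-strand clusters on a modified Illumina MiSeq flow-cell. The clusters were imaged in selection buffer, then after 15 min with 500 uM ATP at 22 °C, and this buffer/ATP cycle ran five times with NaOH stripping and re-annealing between runs. Per-cluster fluorescence ratios, summed target-cycle over summed buffer-cycle Cy3 intensity, were averaged per switch-domain sequence. Clusters outside 100-1000 RFU were excluded.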

Sequences with one replicate were seen in a single cluster, so their values are uncertain.
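Note: ATP exposure 15 min at 22 °C before imaging.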

Regarding CTTACTAGGG, the switch fluorescence ratio was 0.99.
The value for CCTTATTGCG was 0.992; that for ACCTAAAGAT was 1.06.
To GCCTATTGCA belongs 0.989; to AATAAATTAC, 0.992; to TATCGGCTCT, 0.946.
To GCGTGGTACG belongs 1.51.
Consider AGTGCTAAG, for which the switch fluorescence ratio was 1.02.
For GACACTGTGC, the switch fluorescence ratio was determined as 1.06.
The value for GTTTTACTGT was 0.989; that for GTGATCTAGC was 1.07.
To CTGATGGGCG belongs 0.979; to ATAGGCGGA, 0.905.
To AGCGAGAAGA belongs 1.01.
Take GCGCTGTTTG: the switch fluorescence ratio was found to be 1.02.
The value for ATGAGTGTAT was 0.984.
On to CTTTACGCGG, for which the switch fluorescence ratio came out at 0.98.
To GAAACCCCGT belongs 1.01; to CGGAGAATCC, 1.01.
On to TATAGCCGAG, for which the switch fluorescence ratio came to 1.03.
The value for ACTATGGTAG was 0.979; that for TTATTCAG was 1.03.
The value for TTGGATGTTC was 1.01.
With ATATCCTGAT, the switch fluorescence ratio is 1.01.
TGCCTACTTT: the switch fluorescence ratio worked out at 1.03.
The value for CAACTGTTCA was 1.02; that for TACTCGGGGG was 1.21; that for GAGGTAAATT was 1.
Turning to TTCGAAAGC, the switch fluorescence ratio was found to be 1.15.
To TAACCCATAC belongs 1.28; to GCTGTAGTAA, 1.32; to CGTGTAAGTT, 0.995.
The value for AAGCTTAGCA was 0.988.
Regarding GGAATAAACG, the switch fluorescence ratio turned out to be 0.973.
To TTATGGCCAG belongs 0.986; to AATCTGCGGT, 1.04; to ACCCGAGCCA, 1.04.
The value for CGTCAAAATT was 1.03; that for TAATCACCGC was 1.11; that for GAAACAGTTA was 0.966.
To TTGATTTTAT belongs 0.995; to TTGATTAAAC, 1.01; to GGCGCAGAGG, 1.07.
As to GGTGATGCGA, the switch fluorescence ratio came out at 0.993.
The value for ATGGCTTTAT was 1.02.
Regarding TGGTGGGCTA, the switch fluorescence ratio came to 0.984.
On to TTATGCACTT, for which the switch fluorescence ratio amounted to 1.05.
To CCGTGTGAGG belongs 0.979; to ACTACTAGAA, 0.994; to GCTATCGTGA, 1.02.
To TGCAGAAAAA belongs 1.01.
To CCTGGAACTG belongs 0.961; to ATTAACAAAA, 0.91.
In the case of GCGTGTTTTC, the switch fluorescence ratio was 0.973.
As to GCGGGGTCGA, the switch fluorescence ratio is 1.03.
Consider AGCTAGGA, for which the switch fluorescence ratio was 1.03.
As to AGGGAATCTC, the switch fluorescence ratio stood at 0.989.
Regarding GGGATATTTC, the switch fluorescence ratio stood at 0.976.
To CCGTTTGGAG belongs 1.03; to AGACTGGTGT, 1.02.
TTTAATCCGC: the switch fluorescence ratio was determined as 1.52.
With ACCGCCTATG, the switch fluorescence ratio came to 1.15.
To CGACCACTTG belongs 1.02.
The value for GTGTTACAGG was 1.02.
To GTGCAACCTA belongs 1.02; to TTTTCACATC, 1.07.
For CCTAACGTAT, the switch fluorescence ratio was 1.23.
